Consider 88 molecules from PMC4336329 (PLoS ONE, 2015).

Out of some 310,000 compounds screened, about 14,000 (4.5%) showed an effect of 50% or more. The effect is printed as a negative number. The list shows a part of the results.
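Also: peak tail current of the secondary pulse compared with the same well before compound.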

This experiment deals with human ether-à-go-go-related gene (hERG) potassium channel (human, UniProt Q12809). The experiment in a line: primary screen, population patch clamp on CHO cells stably expressing hERG.
Sequence of human ether-à-go-go-related gene (hERG) potassium channel (Q12809 whole entry, looked up): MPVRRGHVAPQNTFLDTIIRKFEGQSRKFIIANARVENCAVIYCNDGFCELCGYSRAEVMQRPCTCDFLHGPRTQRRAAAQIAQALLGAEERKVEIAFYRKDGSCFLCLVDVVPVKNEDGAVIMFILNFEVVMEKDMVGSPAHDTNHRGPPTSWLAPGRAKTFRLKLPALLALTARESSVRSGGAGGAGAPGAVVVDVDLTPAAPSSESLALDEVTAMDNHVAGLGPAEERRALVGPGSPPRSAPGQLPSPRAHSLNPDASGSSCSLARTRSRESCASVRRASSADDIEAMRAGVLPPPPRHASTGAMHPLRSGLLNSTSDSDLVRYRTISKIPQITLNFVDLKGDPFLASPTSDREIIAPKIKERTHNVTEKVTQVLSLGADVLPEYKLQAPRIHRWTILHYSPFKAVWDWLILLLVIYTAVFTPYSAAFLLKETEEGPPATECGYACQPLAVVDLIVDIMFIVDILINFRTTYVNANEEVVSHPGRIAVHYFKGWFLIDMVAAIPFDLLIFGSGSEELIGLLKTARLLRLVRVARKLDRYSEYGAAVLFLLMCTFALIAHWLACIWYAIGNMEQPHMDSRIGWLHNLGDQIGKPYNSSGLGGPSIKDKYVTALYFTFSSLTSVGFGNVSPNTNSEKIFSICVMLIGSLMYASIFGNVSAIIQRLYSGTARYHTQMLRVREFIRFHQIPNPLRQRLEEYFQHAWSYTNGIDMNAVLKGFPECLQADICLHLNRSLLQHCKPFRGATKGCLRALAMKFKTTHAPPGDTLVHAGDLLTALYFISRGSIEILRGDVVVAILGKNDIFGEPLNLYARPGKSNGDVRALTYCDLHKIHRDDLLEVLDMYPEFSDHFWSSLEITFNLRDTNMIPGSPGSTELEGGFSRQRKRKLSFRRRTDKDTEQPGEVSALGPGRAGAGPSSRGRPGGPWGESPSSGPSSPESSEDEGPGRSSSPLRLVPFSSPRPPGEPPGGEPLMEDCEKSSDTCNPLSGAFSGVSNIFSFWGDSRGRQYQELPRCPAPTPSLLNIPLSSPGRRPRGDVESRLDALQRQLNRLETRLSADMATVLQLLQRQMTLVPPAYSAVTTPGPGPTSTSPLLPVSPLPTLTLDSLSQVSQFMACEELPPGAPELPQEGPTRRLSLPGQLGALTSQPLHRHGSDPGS
With `Cn1c(=O)c2cc(NC(=O)c3ccccc3Cl)c(=O)oc2n(C)c1=O`, the “hERG current change (%, negative = inhibition) at 10uM” value is given as -7.06%.
`O=C(CC1CC2CCC1C2)N1CCN(S(=O)(=O)c2ccccc2F)CC1` (stereo not shown): the “hERG current change (%, negative = inhibition) at 10uM” value was -10%.
Then `Cc1cc(NC(=O)COC(=O)c2cc(S(=O)(=O)N3CCOCC3)ccc2N2CCCCC2)no1`, with -16.6%; and `COc1ccc(OC)c(NC(=O)CSc2nnc(NC(=O)c3ccco3)s2)c1`, with 13.8%; and `S=c1[nH]nc(C2CCCCC2)n1/N=C/c1ccc(Br)cc1`, with 13.3%.
In the case of `Cc1cn2c(-c3ccc(Cl)cc3)nnc2s1`, the “hERG current change (%, negative = inhibition) at 10uM” value is recorded as -33.3%.
With `CCCCN(C(=O)CN1C(=O)C2CCCCC2C1=O)c1c(N)n(CCC)c(=O)[nH]c1=O` (stereo not shown) the figure was 12.2%; with `CCn1c(SCC(=O)c2c[nH]c3ccccc23)nnc1-c1cccs1`, 3.13%; with `COC1CCCCC1NS(=O)(=O)c1ccc(Cl)cc1` (stereo not shown), 5.52%.
With `CN1CCN(NC(=O)c2ccccc2F)CC1` the figure was 18%; with `O=C(O)c1cc2c(cc1Cl)N1CCCCCC1=NS2(=O)=O`, -1.19%; with `Cc1ccc(NC(=O)Nc2c(C)[nH]c(=O)[nH]c2=O)cc1Cl`, 17.7%.
Then `CCOC(=O)CSc1nc(C(C)C)nc2sc(C)c(C)c12`, with 25.5%.
`CC(C)CC1NC(=O)N(CC(=O)N2CCN(S(=O)(=O)c3ccc4ccccc4c3)CC2)C1=O` (stereo not shown): the “hERG current change (%, negative = inhibition) at 10uM” value is listed as -7.96%.
Then `Cc1ccc2c(c1)C(c1ccccc1)N(C(=O)c1ccc(Br)cc1)CC(=O)N2` (stereo not shown), with -10.2%; and `CCCNC(=O)COC(=O)/C=C/c1cccc(F)c1`, with 3.33%.
Then `O=C(Nc1ccc(F)cc1)c1ccccc1F`, with -1.54%; and `COc1ccc(CNC(=O)c2ccc(C)o2)cc1`, with 5.6%; and `CC(C)N1CCC(N2CCN(Cc3cccc4nonc34)CC2CCO)CC1` (stereo not shown), with 3.08%.
With `Cc1ccccc1NC(=O)NC1CCCCCCC1` the figure was 8.64%.
On to `Nc1ccc2c(c1)Oc1ccccc1C=C2`, for which the “hERG current change (%, negative = inhibition) at 10uM” value is -12.7%.
With `Cc1noc(C)c1S(=O)(=O)N(C)CC(=O)Nc1ccc(F)cc1` the figure was 3.4%.
Then `OCCC1CN(CC2CCCCC2)CCN1CC1CCCCC1` (stereo not shown), with -28%.
Then `Cc1cc(C)c2nc(N3CCC(C(=O)NCCCN4CCCCC4)CC3)sc2c1`, with -37.2%; and `O=c1cc(CSc2ccccc2)nc(-c2ccccc2)[nH]1`, with 6.19%; and `CCC(C(=O)O)N1C(=O)/C(=C/C(C)=C/c2ccccc2)SC1=S` (stereo not shown), with 6.55%.
Regarding `CCCCN(C(=O)c1ccc(NC2CC2)c([N+](=O)[O-])c1)c1c(N)n(CC(C)C)c(=O)[nH]c1=O`, the “hERG current change (%, negative = inhibition) at 10uM” value is given as -2.38%.
With `COc1ccc(S(=O)(=O)N2CCc3ccccc32)cc1C(=O)N1CCOCC1` the figure was -0.239%.
With `O=C(CN1C(=O)c2ccccc2S1(=O)=O)c1ccc(Cl)cc1Cl` the figure was -1.92%; with `COc1ccc(C2CC(=O)N(C)c3ccccc3S2)cc1OC` (stereo not shown), -3.09%; with `CC(NC(=O)CCc1nnc(-c2ccc(-c3ccccc3)cc2)o1)c1nc2ccccc2[nH]1` (stereo not shown), -8.94%.
With `CC(=O)c1ccc(N(C(=O)CNC(=O)c2ccco2)C(C(=O)NC2CCCC2)c2ccncc2)cc1` (stereo not shown) the figure was 20.3%; with `CCOc1ccc(CCNC(=O)COC(=O)/C=C/c2ccc(OC)c(OC)c2)cc1OCC`, -0.716%; with `COc1ccc(NC(=O)CN(c2ccccc2C)S(C)(=O)=O)c(OC)c1`, 11.7%.
As for `CC(=O)Nc1ccc(OC(=O)N(C)C)cc1`, the “hERG current change (%, negative = inhibition) at 10uM” value is recorded as -11.3%.
With `O=C(Cc1ccc(S(=O)(=O)N2CCOCC2)s1)N(Cc1ccccc1)c1ccccc1` the figure was -3.74%.
With `CC(=O)Nc1ccc(OCc2nnc(-c3ccc(Cl)cc3)o2)cc1` the figure was 1.1%; with `COc1ccc(Br)cc1CNC(=O)CCc1nc(-c2ccccc2F)no1`, 1.51%; with `Cc1ccc(S(=O)(=O)N2CCC(C(=O)N3CCc4ccccc43)CC2)cc1`, -3.76%.
With `NC(=S)n1[nH]c(-c2ccc([N+](=O)[O-])cc2)c(N=Nc2ccc(O)cc2)c1=O` the figure was 4.06%.
For the molecule `Cc1ccc(C(CC(=O)NCCCN(C)C)c2ccc(OC(C)C)cc2)cc1` (stereo not shown), the “hERG current change (%, negative = inhibition) at 10uM” value is -42.9%.
Then `COc1ccc(/C=C/C(=O)NCc2cnn(C)c2C)cc1COc1ccc(Br)cc1`, with 6.13%; and `CN1c2ccsc2C(=O)/C(=C\Nc2cccc(C(F)(F)F)c2)S1(=O)=O`, with 9.64%; and `COc1ccc(NS(=O)(=O)c2cccc(C(=O)N/N=C/c3ccc(O)cc3)c2)cc1`, with 5.75%.
Then `CC(=O)CSc1ccc(S(=O)(=O)N2CCN(C)CC2)cn1`, with 9.87%.
With `Cc1ccc(S(=O)(=O)/N=C(/NC(=S)Nc2c(C)n(C)n(-c3ccccc3)c2=O)c2ccccc2)cc1` the figure was 4.2%.
`[O-]/C(=C(\C(=S)NCc1ccccc1)[n+]1ccccc1)c1ccc(Cl)cc1`: the “hERG current change (%, negative = inhibition) at 10uM” value is reported as 7.11%.
With `O=C(c1ccccc1Sc1ccc([N+](=O)[O-])cc1Cl)N1CCOCC1` the figure was -11.2%; with `Cc1nnc(SCc2ccc(C(=O)c3ccc(Cl)cc3)o2)n1-c1ccccc1`, -48.1%.
With `CSc1cccc(CN2CCC(CO)(Cc3cccc(C(F)(F)F)c3)CC2)c1` the figure was -64.4%.
Consider `CC(C)/C=C1\CCCCC1N(C)C(=O)NC(C)C` (stereo not shown), for which the “hERG current change (%, negative = inhibition) at 10uM” value is recorded as 12.1%.
With `CCC1(c2ccccc2)NC(=O)N(CC(=O)NNC(=O)CCN2CCN(c3ccccc3)CC2)C1=O` (stereo not shown) the figure was 18.6%.
Then `Cc1ccc(NC(=S)NCCc2ccccc2)c(C)c1`, with 10.1%; and `O=C(O)c1cc(-c2ccc(Cl)cc2)n(-c2cccc(Cl)c2)n1`, with 23.4%; and `COc1cc(C(=S)N2CCCC2)ccc1OC(=O)c1ccc(Cl)cc1[N+](=O)[O-]`, with 4.06%.
Take `CC(C)(C)n1nnnc1C(c1cc2cc3c(cc2[nH]c1=O)OCO3)N1CCN(c2ccccc2)CC1` (stereo not shown): the “hERG current change (%, negative = inhibition) at 10uM” value was -22.4%.
With `O=c1oc2ccccc2cc1N1CCOCC1` the figure was -7.08%.
With `Cc1ccc(OC(C)C(=O)N=Nc2c(O)[nH]c3ccc([N+](=O)[O-])cc23)cc1` (stereo not shown) the figure was -33.3%; with `CN(C)c1ccc(/C=N/NC(=O)c2nonc2N)cc1[N+](=O)[O-]`, 3.72%.
With `O=C(CN1CCN(S(=O)(=O)c2ccc(F)cc2)CC1)NCc1cccs1` the figure was -32.1%; with `CCOC(=O)C1CCCN(Cc2ccccc2Cl)C1` (stereo not shown), -3.88%.
In the case of `CC(C)(C)c1cnnn1-c1ccc(NC(=O)c2ccc(Br)o2)cc1`, the “hERG current change (%, negative = inhibition) at 10uM” value is given as 3.78%.
Then `O=C1c2ccccc2C(Nc2ccc3c(c2)OCO3)N1Cc1ccco1` (stereo not shown), with -23.5%.
Take `COc1ccc(C(=O)NCC(C)(C)N2CCOCC2)cc1S(=O)(=O)N1CCCC1`: the “hERG current change (%, negative = inhibition) at 10uM” value is -8.82%.
As to `COc1cc(CNc2nc(C)c([N+](=O)[O-])c(C)c2C#N)cc(OC)c1OC`, the “hERG current change (%, negative = inhibition) at 10uM” value was determined as 12.8%.
Take `CC(=O)NC(CC(=O)OC(C)C(=O)Nc1ncc(Cl)cc1Cl)c1ccccc1` (stereo not shown): the “hERG current change (%, negative = inhibition) at 10uM” value is given as -7.77%.
With `O=C(NCc1cccnc1)c1cc(Cl)ccc1[N+](=O)[O-]` the figure was 14.1%.
In the case of `O=C(OCc1ccc(Cl)cc1Cl)c1cccnc1Cl`, the “hERG current change (%, negative = inhibition) at 10uM” value is listed as -6.71%.
With `COc1ccc(NC(=O)CN2C(=O)NC(C)(C3CC3)C2=O)c(OC)c1` (stereo not shown), the “hERG current change (%, negative = inhibition) at 10uM” value is on record as -17.9%.
With `Cc1ccc(OCCNC(=O)C2CC(=O)N(c3ccc(C)cc3)C2)cc1` (stereo not shown) the figure was -4.5%; with `COc1ccccc1Nc1nc2ccccc2n2cnnc12`, 6.29%; with `Cc1ccc(Nc2cc(C)nc3ccc(C)cc23)cc1`, -37.9%.
With `Cc1cc(N2C(=O)C3CCCN3C2c2cccc(Cl)c2)no1` (stereo not shown) the figure was 7.08%; with `Cc1onc(-c2c(F)cccc2Cl)c1C(=O)NCc1ccc(F)cc1`, -4.75%; with `COc1ccc(CCNC(=O)c2ccc(Cl)cc2)cc1`, 14.7%.
With `CC(=O)c1ccc(OC(C)C)c(CSC(=N)N)c1.Cl`, the “hERG current change (%, negative = inhibition) at 10uM” value is recorded as -8.72%.
Then `COc1ccc2c(c1)C(C1C(=O)CCCC1=O)c1ccccc1O2` (stereo not shown), with -1.12%.
As for `CCN(c1ccccc1)S(=O)(=O)c1ccc(C(=O)Nc2ccccn2)cc1`, the “hERG current change (%, negative = inhibition) at 10uM” value is listed as -8.37%.
With `COc1ccccc1C(=O)NCCC(=O)NC1CCCCC1C` (stereo not shown) the figure was -3.32%; with `Cn1cc(SCC(=O)Nc2nc3ccccc3s2)c2ccccc21`, -5.6%.
Then `COC(=O)c1ccc(NC(=O)CCC(=O)c2ccc(F)cc2)cc1`, with 25.8%; and `O=S(=O)(c1ccccc1)N1CCN(S(=O)(=O)N2CCCCC2)CC1`, with -4.6%; and `CCOc1ccc(Cc2nc(C)c(CC(=O)N3CCCCC3)c(=O)[nH]2)cc1`, with -10.9%.
As for `O=c1[nH]c(C(F)(F)F)nc2c1nnn2Cc1ccccc1F`, the “hERG current change (%, negative = inhibition) at 10uM” value was found to be 15.3%.
With `CC1(C)CC(=O)C(CC(=O)NC(=O)NCc2ccccc2)=C(O)C1`, the “hERG current change (%, negative = inhibition) at 10uM” value was -5.91%.
Then `COC(=O)c1cc(NC(=O)c2cc(C)oc2C)cc(C(=O)OC)c1`, with -4.3%; and `Fc1cccc(CN2CCN(Cc3nc(CCc4ccccc4)no3)CC2)c1`, with -4.22%.
With `C=CCNC(=O)COC(=O)c1cccnc1Nc1ccccc1F` the figure was 1.79%.
